In the supplement of paper PMC3334620:
The full ranking holds about 33,000 sequences; the median of “E-score (-0.5 to 0.5)” is about -0.054, and the highest 2% start at about 0.39. This is one part of the list.

The sequences below were run against Ylr278c (UniProt Q05854) (assay: PBM E-score (8-mer binding enrichment) (E-score (-0.5 to 0.5)); higher = stronger / more preferred TF binding; most listed sequences are background and not binding sites). Settings: protein concentration: 200 nM; construct: GST-DNA-binding domain.
In short: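 Detection of bound protein used fluorescent anti-GST, with scans normalised by masliner. The proteins were GST-tagged yeast transcription factors applied at about 100-200 nM to universal all-10-mer Agilent arrays made double-stranded by primer extension. Each ungapped eight-base word, pooled with its reverse complement, was scored with an E-score from the Universal PBM Analysis Suite.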

Sequence | PBM E-score
TCAAAGCA | -0.174
GCGAGCTA | -0.00839
AGAGTAAA | -0.00659
ATAGTAAC | -0.0797
GGACGCAA | 0.142
ATGCGTCC | 0.0177
ATAGTTCG | -0.0272
CTGTGAAA | -0.0588
CAGGCTAG | -0.292
ACGCACGA | -0.168
CGTGTCAG | 0.0804
AAATTCCT | 0.155
CCTCCAGC | -0.37
ATATACAT | -0.124
GAAACTAC | 0.00656
CATTGTAG | -0.0234
CTTGTTCC | 0.0348
ATTGTTTA | -0.127
GAACACTA | -0.139
AGGTATTG | -0.17
ACGACCTC | 0.0801
ACCAAAAC | 0.00872
ACCGGGAG | 0.287
ATGTCTCC | 0.179
TAACACTA | -0.089

Sequence | PBM E-score
GGACCGGA | 0.442
AGGACCGG | 0.311
GAATATCA | 0.108
CGTGAAGA | -0.0516
CTGGACGC | -0.225
GGCAGCCA | -0.00564
CCTTCTTA | -0.172
CAGATCCC | 0.0159
CACAACCG | 0.0798
ATAAGATC | -0.149
ATGTGGAC | -0.129
CTACTTGA | -0.226
GCTCTAGA | -0.22
ATGGACGA | 0.0678
TATTCCAA | -0.177
TCGACCAA | -0.27
GTGGCGTA | -0.00886
GCGTAGAC | -0.275
CTGTTACC | -0.101
ACCGGCGC | 0.351
ATGTTGTG | -0.0626
CATTCTTA | -0.166
AGGAACTG | -0.145
ACCGCCAA | -0.051
CATGCTGG | -0.302

Sequence | PBM E-score
CTCTGATC | -0.271
ATCCAAGA | -0.0868
CGCCAAAA | 0.106
ACTTCGAC | -0.142
GACGAGCA | -0.137
ACGACAGA | -0.232
GTGGAATA | 0.0653
ACTCCGCG | 0.462
TGAGATAA | -0.00905
CCGTGCTC | 0.191
CCTCGTCC | -0.132
CCTCTGAA | -0.219
GGTATGAC | 0.0127
ATATGTTC | 0.0855
TTACAAAA | -0.0461
ATAATCAC | -0.135
GGCCCAGA | -0.0417
AAGCCGAT | 0.303
AGAAGATC | 0.0466
CCCCGGGA | 0.378
ACTACCCA | -0.284
CCTGCGGC | 0.101
AAACCACC | -0.03
CCGAGCTC | 0.202
AGCAACAT | -0.0662

Sequence | PBM E-score
CCAGTGCA | -0.344
AGGTCATA | -0.267
GGACTAAC | 0.114
CAGTCGAG | -0.303
ACATAAAT | -0.128
AAAGAATG | 0.0146
GACCTGGA | -0.214
AACCTCCT | -0.122
GCCCCACC | 0.16
AGTGGCCC | 0.109
CAATCCGA | 0.251
AGCCTAAC | -0.0109
ATGTGAAG | -0.197
TGTAGTAA | 0.103
AATTGAAA | -0.0795
CATCATTC | -0.0876
GATAATCA | -0.0841
CACTGAGG | -0.0699
CCAGAATC | -0.245
GCTCTAAC | -0.0661
ATTCTGAC | -0.139
CAGAAGTA | -0.204
CTCGGCTC | 0.0899
CATGGGGC | -0.0703
GCAGCCAA | -0.0511

Sequence | PBM E-score
ATGAGTGA | -0.132
TCAACCCA | -0.0327
AGGTAAGC | -0.0616
CCAGCCGG | 0.297
TCAGTGGA | -0.0109
ACAAACGA | 0.00727
AGTGATAG | -0.195
TGCACGAA | -0.212
TCAAAAAA | 0.0838
ACTGTTAT | -0.108
AAGTAACT | 0.0219
ATCTGCAT | -0.0373
ATCGACCG | 0.19
CGAGTTGC | -0.0686
GCCTCACA | -0.231
CGAAATCA | 0.16
CGAGAAGA | 0.0372
ATCGCGAA | 0.286
AAGGCGAT | -0.244
CTGGGCGA | -0.158
AACACTTA | -0.0675
CATGGATA | -0.203
GCGAAAAC | -0.126
AATAACGT | -0.0941
CGTTAACA | -0.0824

Sequence | PBM E-score
CGGGAGTC | 0.156
ATAACAGG | -0.304
AAGATGAG | -0.293
GAGCTAGC | -0.121
CTCGCTAC | -0.183
GATAGTGA | -0.0321
CCAAGGGG | -0.135
GAGCCATA | -0.186
AAACCATA | 0.044
AAGAGCAC | -0.17
CCACGCGA | -0.003
CGTGTCGC | 0.154
ACAGTCAG | -0.288
ACAATTAA | 0.0151
CACCAACC | 0.00935
CACACTGG | -0.243
AGAAGCGA | -0.0741
CAATCAGA | -0.165
AACCTCAA | -0.0886
CATATGCG | 0.031
GGCTCTTA | -0.121
GTCCGGTA | 0.366
ATTTACCG | 0.359
CGTATTTC | 0.0956
ATGGATCC | 0.168

Sequence | PBM E-score
GATTCGAC | -0.19
ATGGGGTA | 0.0221
TCGGAAGA | 0.362
GTACCAAA | -0.0758
GGGTTGTA | 0.014
CGAGGACG | 0.151
TGCGCGAA | 0.0699
TCCATCGA | 0.00835
GGTAGAGA | -0.0783
AAATCGCG | 0.136
CAATACCA | -0.133
TCTACTAA | -0.0405
ACGGAGCA | 0.344
ACTTTACT | -0.0787
CAACTGGC | -0.0875
CCTCCACC | 0.0478
GAGATCGA | 0.0302
GCTGACCC | -0.0423
ACGATCAA | -0.163
GCGGCGAA | 0.378
TAGTAGAA | -0.0566
ATTGTAGA | -0.135
GGGCTTAA | -0.0289
AGTTATTC | 0.044
ATACAGTG | -0.246

Sequence | PBM E-score
ACTTGGTA | -0.12
CTGGGGAC | -0.284
GGGGTACC | 0.076
AGTGGTTA | -0.247
AGGGTAGG | -0.128
CCATACGC | -0.169
AAGCCTTA | -0.141
GTCGTGCA | -0.292
AAAGACTG | -0.306
GCCTTGAC | -0.0142
AAAAAGGT | -0.0692
AAGTAACA | -0.0202
CCGCTGAA | 0.102
CCTGCTCA | -0.145
ACTACGAG | -0.128
AAGGTCTA | -0.123
AATCGCAT | -0.0177
ATTGAAGC | 0.00174
CCAACACA | -0.0865
TATTTGAA | -0.12
ACTCATAC | -0.106
CTTAGACA | -0.316
CTAGTAGC | -0.0518
CCAGCGGC | 0.00708
GCCCAGAA | -0.053

Sequence | PBM E-score
CCTTAGCG | -0.00878
GCGCGCAC | 0.196
CGGTGACG | 0.101
CTCATCTC | -0.051
ATAACTAT | -0.106
GGCATGAC | -0.212
TACTAATA | 0.00135
CACTTTTA | 0.024
AATCCGGA | 0.466
AATGCGTG | -0.281
CGCCTCAA | -0.00933
CGTGTGTA | 0.0901
AACGCGAA | -0.0418
GTCGAGTA | -0.0162
GTTAGACA | 0.00272
ACGCCGCC | 0.279
AGTGAGTA | -0.0314
CTTGGCTA | -0.287
CCACCCTC | 0.0462
CCCAGGAA | -0.157
ATGCCGAA | 0.325
GAAGACGA | 0.0241
ACGTTGCA | -0.125
ATTCGAAT | -0.183
GACCCCGC | 0.247

Sequence | PBM E-score
ACTATTTG | -0.0506
AGTGGACG | 0.0113
AACCTGTA | -0.229
GTAACTAC | -0.0221
AAATCTCT | 0.00959
CGGAGGCA | 0.34
CGACAGAC | -0.117
CGAAGCCA | -0.134
AGGTACAA | -0.22
ATTCCGAC | 0.451
AACCACAA | 0.0137
GCGCCTTA | -0.039
AGCAATTA | 0.0127
AACTGAGG | -0.11
GGTGAACA | -0.253
AATGACTG | -0.167
ACGTTCCA | 0.015
ACGCAATC | 0.077
CCTGGACG | -0.156
AACTAGGT | 0.202
CCCCACTC | -0.0243
AGCTGGCG | -0.0563
ACCTGCTC | -0.0269
CATGTAAC | -0.0897
TAGAGTGA | -0.0521

Sequence | PBM E-score
AGACTAAT | -0.0793
ACCAGATA | -0.0605
CACCAATA | 0.0666
CGCACGTC | 0.139
GAGCCGTA | 0.075
GCAATTCA | 0.0454
CAAAGGAA | -0.155
CATTTGGG | -0.0571
AAGTCTAT | -0.222
CGCTATTA | 0.0466
AGGTATCG | 0.152
CTGGGGTC | -0.0664
AAGAGGTA | 0.08
GACATCTC | 0.005
CGTTGTAG | 0.116
AACGCTTA | -0.148
TATGCGAA | -0.0768
CTTAGGCA | -0.285
ACCGTCAC | -0.119
ACACATTA | -0.226
ACGCATAA | -0.0989
AGCCCTGG | -0.298
GGCCCTCA | -0.189
GCCACTAC | 0.0805
GGCACGTA | -0.0805

Sequence | PBM E-score
AGTCGGAG | 0.41
GCAACGGC | 0.11
ATACGGGG | 0.219
CTTTCGAC | -0.124
AAACTGGC | -0.0909
ATCAGAAC | -0.0482
AGGGGGTA | -0.331
AGCTGGCA | -0.11
CCTTGCGA | -0.0612
ATTATACC | 0.206
ATATTGCA | -0.0264
TAGCCAAA | 0.0528
TGACCCAA | -0.235
CTCTAGTC | -0.16
GCCTTCAA | -0.141
ATATCGCC | 0.185
AGTGCATG | -0.232
AACACACT | -0.175
CCTAGCGC | -0.136
CAACCGTC | -0.0832
ACTTTCAC | -0.0011
ACAAAGCT | 0.0371
AATAGTAG | 0.0073
AAAGTACG | -0.00022
GTCATACA | -0.108

Sequence | PBM E-score
GTTTGATA | 0.0927
CGCAATTA | 0.23
CTATCAGC | -0.084
CCATTGAA | -0.0444
GGATCGTA | -0.00905
GTCGGCTA | 0.088
CTAACCCC | 0.0848
GAGGGATA | -0.0711
ATTACGTG | -0.276
CGCTTACG | 0.0152
GGATCTAA | 0.0656
ACACTCCA | -0.111
CCAAGCAG | -0.0723
AGGCGTGG | -0.332
AACCAGTC | 0.0517
AATCTGTG | -0.166
AACTAGCG | 0.21
CTCATGAC | -0.0271
AGACGGCG | 0.0243
AGTCTTTA | -0.268
AGTATCAT | -0.00037
CTCGCGAC | 0.00925
CCAAGACA | -0.0449
TACGGGCA | -0.0848
ATAGATAG | -0.174

Sequence | PBM E-score
ACGCACAT | -0.12
ACACGTCA | -0.242
ATTCCTCA | -0.094
CCGAAACA | 0.282
CTTGACTA | -0.11
AGCTGGAA | -0.176
CAATCGAC | -0.257
ACGAGAGT | -0.131
GTTATTTA | -0.0229
AGCTTAGC | -0.152
AAAGCTGA | -0.206
AGGTTTCC | -0.0429
AGAGGAAC | -0.247
CTCCTCCA | -0.189
ATGAATAG | 0.0237
AGCGTTAG | -0.142
CCCTTAGG | -0.228
GTGAAAAA | 0.037
ATGAACAG | -0.146
